{"source": "the supplement of paper PMC3334620", "note": "Over roughly 33,000 sequences, “E-score (-0.5 to 0.5)” has its median near -0.056; the highest 2% begin near 0.38. The list shows a part of the results."}
{"biological_target": "Stb4 (UniProt P50104)", "assay": "PBM E-score (8-mer binding enrichment) (E-score (-0.5 to 0.5)); higher = stronger / more preferred TF binding; most listed sequences are background and not binding sites", "settings": "protein concentration: 200 nM; construct: GST-DNA-binding domain", "method": "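Universal 'all 10-mer' protein binding microarrays (Agilent AMADID 015681) probed with GST-tagged S. cerevisiae TFs (full-length or DBD) made by in vitro transcription/translation (PURExpress), about 100-200 nM. Bound TF was detected with fluorescent anti-GST. Each ungapped 8-mer (which stands for itself and its reverse complement) is scored by the PBM enrichment score (E-score), a modified Wilcoxon-Mann-Whitney statistic from -0.5 to +0.5, computed with the Universal PBM Analysis Suite. Scale: above 0.35 generally sequence-specific binding.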"}
{"sequence": "CTAAGGAA", "PBM E-score": -0.0293}
{"sequence": "GTGAGGCA", "PBM E-score": -0.0459}
{"sequence": "AAGTCCCT", "PBM E-score": -0.294}
{"sequence": "GGAGAAGA", "PBM E-score": -0.0192}
{"sequence": "TCCCCTCA", "PBM E-score": -0.106}
{"sequence": "CTTTGCTA", "PBM E-score": -0.167}
{"sequence": "GCGTTTAC", "PBM E-score": -0.0125}
{"sequence": "CGCCGTAA", "PBM E-score": 0.123}
{"sequence": "ACCATGTA", "PBM E-score": -0.148}
{"sequence": "ATCACCGG", "PBM E-score": 0.137}
{"sequence": "ATTCCGTA", "PBM E-score": 0.265}
{"sequence": "ATTTGGTG", "PBM E-score": -0.194}
{"sequence": "CCGCATAG", "PBM E-score": 0.0776}
{"sequence": "GCTTAAAC", "PBM E-score": -0.188}
{"sequence": "CTCGCCAA", "PBM E-score": -0.0864}
{"sequence": "AGGAGCAG", "PBM E-score": -0.137}
{"sequence": "CATTACTC", "PBM E-score": -0.00902}
{"sequence": "AAACCATT", "PBM E-score": -0.0827}
{"sequence": "GTAATGAA", "PBM E-score": -0.177}
{"sequence": "ATGTGCCC", "PBM E-score": -0.048}
{"sequence": "GAGAACGC", "PBM E-score": -0.115}
{"sequence": "CCTGAGTC", "PBM E-score": 0.133}
{"sequence": "ATATGACC", "PBM E-score": -0.13}
{"sequence": "CTTCATGA", "PBM E-score": -0.0961}
{"sequence": "ACGCACCC", "PBM E-score": -0.00669}
{"sequence": "ATCAGAAT", "PBM E-score": -0.0528}
{"sequence": "CTCTGTAC", "PBM E-score": -0.241}
{"sequence": "CTACGTTC", "PBM E-score": -0.0027}
{"sequence": "AGCCCGCC", "PBM E-score": 0.0602}
{"sequence": "GAACGCTC", "PBM E-score": -0.261}
{"sequence": "AGCAATCA", "PBM E-score": -0.213}
{"sequence": "GAAATACC", "PBM E-score": 0.133}
{"sequence": "GAAGCCCC", "PBM E-score": 0.18}
{"sequence": "AGGAGAGG", "PBM E-score": -0.405}
{"sequence": "AGGCAGGG", "PBM E-score": -0.246}
{"sequence": "ATAGGAAT", "PBM E-score": -0.164}
{"sequence": "CAGCGAGC", "PBM E-score": 0.00924}
{"sequence": "CAGCATGG", "PBM E-score": -0.0225}
{"sequence": "CGAACGCG", "PBM E-score": 0.234}
{"sequence": "TCCCTCGA", "PBM E-score": -0.198}
{"sequence": "CGTTTCGC", "PBM E-score": 0.0985}
{"sequence": "GCAACTAA", "PBM E-score": 0.0277}
{"sequence": "GTCGTCTA", "PBM E-score": -0.0927}
{"sequence": "AGGCCTCA", "PBM E-score": -0.274}
{"sequence": "CAAGAAGC", "PBM E-score": -0.155}
{"sequence": "AGTAAACA", "PBM E-score": -0.0848}
{"sequence": "CCTTCATA", "PBM E-score": -0.144}
{"sequence": "GCCCCGCC", "PBM E-score": 0.277}
{"sequence": "ACTAACGA", "PBM E-score": -0.242}
{"sequence": "CGTCGTGA", "PBM E-score": -0.0507}
{"sequence": "AGGGGACT", "PBM E-score": -0.0531}
{"sequence": "GAGTTAGC", "PBM E-score": -0.0388}
{"sequence": "ACCTTTGG", "PBM E-score": -0.144}
{"sequence": "GTGCGCAA", "PBM E-score": -0.1}
{"sequence": "ATTTTTGG", "PBM E-score": -0.112}
{"sequence": "CACACCCA", "PBM E-score": 0.00395}
{"sequence": "ACACTAAC", "PBM E-score": -0.0185}
{"sequence": "ACTAGTGC", "PBM E-score": -0.127}
{"sequence": "CGATAGAC", "PBM E-score": -0.064}
{"sequence": "GTCTCCAA", "PBM E-score": -0.156}
{"sequence": "GTACTAAA", "PBM E-score": -0.137}
{"sequence": "CCTCCTAC", "PBM E-score": -0.0946}
{"sequence": "CCGACGTA", "PBM E-score": 0.31}
{"sequence": "CACCCGGA", "PBM E-score": 0.358}
{"sequence": "CCCCGGAC", "PBM E-score": 0.183}
{"sequence": "CAACGGAG", "PBM E-score": 0.103}
{"sequence": "CTTACAGC", "PBM E-score": -0.134}
{"sequence": "CCACTCAG", "PBM E-score": -0.212}
{"sequence": "CTTACTAC", "PBM E-score": -0.0203}
{"sequence": "ATCGCCCC", "PBM E-score": -0.128}
{"sequence": "CAGGACTG", "PBM E-score": -0.28}
{"sequence": "GGAGGGAC", "PBM E-score": 0.0519}
{"sequence": "AACCCGCC", "PBM E-score": 0.199}
{"sequence": "GTGATGTA", "PBM E-score": -0.0453}
{"sequence": "GGGAGACC", "PBM E-score": 0.0202}
{"sequence": "GTACAGAA", "PBM E-score": 0.0798}
{"sequence": "CTCACGCC", "PBM E-score": 0.0107}
{"sequence": "CACACTGA", "PBM E-score": -0.338}
{"sequence": "GTCGCCCA", "PBM E-score": -0.173}
{"sequence": "ATATAGGG", "PBM E-score": -0.161}
{"sequence": "TGCCTTAA", "PBM E-score": -0.244}
{"sequence": "CTACTACC", "PBM E-score": 0.0495}
{"sequence": "ACACGTAA", "PBM E-score": -0.0577}
{"sequence": "GGTTAAAA", "PBM E-score": 0.177}
{"sequence": "TTCTCCAA", "PBM E-score": -0.139}
{"sequence": "GCAAGGCC", "PBM E-score": -0.0186}
{"sequence": "CGCTAACG", "PBM E-score": 0.0009}
{"sequence": "CCTAAACA", "PBM E-score": -0.149}
{"sequence": "ATATCCAA", "PBM E-score": 0.0444}
{"sequence": "AATTGTTC", "PBM E-score": 0.136}
{"sequence": "TAGTCTAA", "PBM E-score": -0.0612}
{"sequence": "CCGAGCGC", "PBM E-score": 0.44}
{"sequence": "CGTGGGTA", "PBM E-score": 0.104}
{"sequence": "CTTGTCAC", "PBM E-score": -0.233}
{"sequence": "AGATGTGG", "PBM E-score": -0.0748}
{"sequence": "AGCATGAC", "PBM E-score": -0.302}
{"sequence": "CTGAGTCC", "PBM E-score": -0.0794}
{"sequence": "GCAAGTAC", "PBM E-score": -0.192}
{"sequence": "AATCGATC", "PBM E-score": 0.0225}
{"sequence": "GAAAGGGC", "PBM E-score": -0.0973}
{"sequence": "AAGACAAG", "PBM E-score": 0.0278}
{"sequence": "GGAGGGGA", "PBM E-score": 0.196}
{"sequence": "GCCAACAA", "PBM E-score": -0.163}
{"sequence": "CCAGCAAG", "PBM E-score": -0.175}
{"sequence": "TGCGGTAA", "PBM E-score": 0.0561}
{"sequence": "CCTATGCC", "PBM E-score": -0.174}
{"sequence": "CACGGCCA", "PBM E-score": -0.148}
{"sequence": "GAGGTAGC", "PBM E-score": -0.0938}
{"sequence": "CGGTCACA", "PBM E-score": -0.0886}
{"sequence": "ACAAAACG", "PBM E-score": 0.037}
{"sequence": "AATAGTGT", "PBM E-score": 0.213}
{"sequence": "ACCGGTCC", "PBM E-score": 0.19}
{"sequence": "GACTAACA", "PBM E-score": -0.048}
{"sequence": "CCTCTGTA", "PBM E-score": -0.251}
{"sequence": "AGCAGACC", "PBM E-score": -0.0722}
{"sequence": "AAGTCGTG", "PBM E-score": -0.143}
{"sequence": "TACCCCCA", "PBM E-score": -0.354}
{"sequence": "CGTGCTGA", "PBM E-score": -0.153}
{"sequence": "AGCCTTAC", "PBM E-score": -0.284}
{"sequence": "GCCGGGAA", "PBM E-score": 0.322}
{"sequence": "AAACGACG", "PBM E-score": -0.0616}
{"sequence": "AACCTAGG", "PBM E-score": -0.012}
{"sequence": "CCGAGGGC", "PBM E-score": 0.431}
{"sequence": "GATCCTGA", "PBM E-score": 0.121}
{"sequence": "CAGCATCC", "PBM E-score": 0.121}
{"sequence": "CCGACGAG", "PBM E-score": 0.284}
{"sequence": "CGGGGCAG", "PBM E-score": 0.134}
{"sequence": "CTTGAATC", "PBM E-score": -0.11}
{"sequence": "CTGGAGGA", "PBM E-score": -0.336}
{"sequence": "GAGAACTA", "PBM E-score": -0.0973}
{"sequence": "CACCCAAG", "PBM E-score": -0.00684}
{"sequence": "TCATAGCA", "PBM E-score": -0.245}
{"sequence": "CAAGATCC", "PBM E-score": 0.146}
{"sequence": "GAATAAAC", "PBM E-score": -0.0448}
{"sequence": "ATGCCAAT", "PBM E-score": -0.158}
{"sequence": "AGCGTCCC", "PBM E-score": 0.0771}
{"sequence": "ATCACCTC", "PBM E-score": -0.141}
{"sequence": "GTAGGGGA", "PBM E-score": -0.0129}
{"sequence": "ACGCGACT", "PBM E-score": -0.164}
{"sequence": "GCGTGGTA", "PBM E-score": 0.0418}
{"sequence": "ACGAGGAA", "PBM E-score": -0.0251}
{"sequence": "ACTCCTGC", "PBM E-score": 0.067}
{"sequence": "AAGCAGAG", "PBM E-score": -0.226}
{"sequence": "ACGCGACA", "PBM E-score": -0.115}
{"sequence": "GCACTTTA", "PBM E-score": 0.00064}
{"sequence": "ATCTCGGG", "PBM E-score": 0.449}
{"sequence": "GCAGACCA", "PBM E-score": 0.0506}
{"sequence": "CATCTTAG", "PBM E-score": -0.095}
{"sequence": "GTTTACCA", "PBM E-score": -0.0652}
{"sequence": "ATCGATAG", "PBM E-score": -0.265}
{"sequence": "GCATCCAA", "PBM E-score": -0.207}
{"sequence": "CGACTACC", "PBM E-score": 0.148}
{"sequence": "ATGCGACC", "PBM E-score": 0.0749}
{"sequence": "CTTGTTAC", "PBM E-score": -0.206}
{"sequence": "ATGGTTAA", "PBM E-score": -0.164}
{"sequence": "AAGGCCTT", "PBM E-score": -0.207}
{"sequence": "CCGTCGCA", "PBM E-score": 0.116}
{"sequence": "CAATACGG", "PBM E-score": 0.083}
{"sequence": "AGCAAGTG", "PBM E-score": -0.343}
{"sequence": "CATTCGGG", "PBM E-score": 0.343}
{"sequence": "ATTGGAGG", "PBM E-score": -0.268}
{"sequence": "GCGCGTCA", "PBM E-score": -0.206}
{"sequence": "CCGTCTCA", "PBM E-score": 0.0165}
{"sequence": "ACTAGCTC", "PBM E-score": -0.0635}
{"sequence": "CATGAAGG", "PBM E-score": -0.0968}
{"sequence": "AATTTATA", "PBM E-score": -0.0486}
{"sequence": "CAGTGCGA", "PBM E-score": -0.231}
{"sequence": "CCGAAGCC", "PBM E-score": 0.371}
{"sequence": "AGCTGATG", "PBM E-score": -0.135}
{"sequence": "CCGGACTC", "PBM E-score": 0.266}
{"sequence": "AATCCCCT", "PBM E-score": -0.155}
{"sequence": "AATTAGTC", "PBM E-score": 0.105}
